Results from US12390536B2, “Antibody-drug complex containing toll-like receptor 7/8 dual agonist compound” (ASTELLAS PHARMA INC., priority 2022, dated 2025).
Positions count from the first letter of the chain named. Each block holds one molecule with its values, some of them ahead of it.

Tests used:
human CLDN6 = target: T1, human CLDN6 (Homo sapiens, UniProt P56747); assay: Evaluation of binding activity to human CLDN6 by flow cytometry (NUGC-3 cells); details: CLDN6 expressing gastric cancer cell line NUGC-3; 1 ng/mL to 25 μg/mL
T1 construct: The cells of human gastric cancer cell line NUGC-3 (JCRB cell bank) expressing CLDN6; host or cells: NUGC-3 human gastric cancer cell line
T1 sequence (P56747 1-220): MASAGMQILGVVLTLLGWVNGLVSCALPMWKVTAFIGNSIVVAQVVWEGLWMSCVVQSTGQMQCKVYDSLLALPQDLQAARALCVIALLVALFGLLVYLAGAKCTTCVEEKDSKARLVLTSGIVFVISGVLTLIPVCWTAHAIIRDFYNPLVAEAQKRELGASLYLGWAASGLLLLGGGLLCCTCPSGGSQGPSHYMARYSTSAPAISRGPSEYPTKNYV
Method: The cells of human gastric cancer cell line NUGC-3 (JCRB cell bank) expressing CLDN6 were suspended with PBS (Wako, #045-29795) containing 5% FBS so as to have a concentration of 1×10^6 cells/mL. The suspension was seeded (added) in the wells of a 96-well V-bottom microplate at a rate of 100 μL/well. After centrifugation, the supernatant was removed. AbM: antibody comprising a heavy chain, aCLDN6-VH—CH1—CH2—CH3 and a light chain, aCLDN6-VL-CL, disclosed in International Publication No. WO2022/058298. Ab0, Ab1 and Ab2 were suspended with 5% FBS-containing PBS such that the concentrations fall in the range of 1 ng/mL to 25 μg/mL (12 dilution series were prepared by serial dilution at a 2.5-fold dilution rate from 25 μg/mL to 1 ng/mL). The suspensions were added at a rate of 100 μL/well and allowed to stand still at 4° C. for one hour. […] A histogram of PE (phycoerythrin) fluorescence intensity of viable cell fractions was prepared and geometric mean fluorescence intensity (gMFI) was calculated. gMFI values were plotted to make a graph by GraphPad Prism (company: GraphPad Software).

NUGC-3 cells = assay: Evaluation of in-vivo activity in xenograft model; details: NUGC-3 xenograft in SCID mice, 3 mg/kg via tail vein on Day 7 and Day 14 after transplantation
Method: NUGC-3 cells (5×10^6 cells) were suspended with 100 μL of Corning matrigel basal membrane matrix phenol red free (Corning, #356237) and subcutaneously transplanted into SCID mice (CB17/Icr-Prkdcscid/CrlCrlj, purchased from Charles River Laboratories Japan, Inc.) at the lateral region at a ratio of 100 μL/head. Day 7 and Day 14 after transplantation, PBS or a test antibody or a test antibody-drug conjugate (3 mg/kg) was administered through the tail vein of the tumor-bearing mice (n=6 or 9). As test antibodies, Ab0 and Ab1 were used. As test antibody-drug conjugates, ExL1A1, ExL5A1, ExL7A1, ExL1-Isotype, ExL5-Isotype and ExL7-Isotype were used. ExL1-Isotype is an antibody using an anti-KLH antibody (International Publication No. WO2013/094723) in place of Ab1 of ExL1A1. ExL5-Isotype and ExL7-Isotype were prepared in the same manner as in ExL1-Isotype. The major axis and minor axis of a transplanted tumor were measured by an electronic digital caliper (made by Mitutoyo Corporation) twice per week. A tumor volume was calculated in accordance with the following formula: […]

binding to human CLDN6 (gMFI, flow cytometry) (human CLDN6): bind to human CLDN6
B1: Ab1: anti-CLDN6 antibody comprising a heavy chain of SEQ ID NO: 2 and a light chain of SEQ ID NO: 4 (antibody)
heavy: QVQLVESGGGVVQPGGSLRLSCKASGYSFTGYTMNWVRQAPGKGLEWVGLINPYNGGTIYNQKFKGRFTLSVDKSKSTAYLQMNSLRAEDTAVYYCARDYGFVLDYWGRGTLVTVSSASTKGPSVFPLAPSSKSTSGGTAALGCLVKDYFPEPVTVSWNSGALTSGVHTFPAVLQSSGLYSLSSVVTVPSSSLGTQTYICNVNHKPSNTKVDKRV[human IgG1 Fc left out]
light: DIQLTQSPSSLSASVGDRVTITCSASSSVSYLHWFQQKPGKAPKLLVYSTSNLPSGVPSRFSGSGSGTDYTLTISSLQPEDFATYYCQQRSIYPPWTFGQGTKLEIKRTVAAPSVFIFPPSDEQLKSGTASVVCLLNNFYPREAKVQWKVDNALQSGNSQESVTEQDSKDSTYSLSSTLTLSKADYEKHKVYACEVTHQGLSSPVTKSFNRGEC
antitumor effect (tumor volume) (NUGC-3 cells): none

binding to human CLDN6 (gMFI, flow cytometry) (human CLDN6): bind to human CLDN6
B2: Ab2: anti-CLDN6 antibody comprising a heavy chain of SEQ ID NO: 6 and a light chain of SEQ ID NO: 8 (antibody)
heavy: B1 heavy with F102Y
light: B1 light
